Experimental findings from the supplement of paper PMC11417369 are described below.

± gives the standard deviation of the averaged measurements. This is one part of the list.

This assay has as its system PfAP2-LT AP2 domain (GST-tagged). Put plainly: gcPBM binding intensity (ln(normalized median fluorescence intensity)); higher = stronger DNA binding. In a few lines:
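Binding intensity is defined as the maximum Masliner-normalised natural-log median intensity across replicate spots for either probe orientation. It was measured on an Agilent 4 × 180k array of primer-extended double-stranded 36-bp intergenic genomic probes and negative controls, to which GST-tagged P. falciparum DNA-binding domains made in E. coli were applied for 1 h in 1× PBS with 1% milk, 0.2 mg/ml BSA, 0.5% salmon testes DNA and 0.03% Triton X-100. Detection was by Alexa488 anti-GST antibody and scanning at 488 nm.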
For the sequence “TAAAATATGTCATGGGTGCTTCTTTTTATACCTATG [GTGCAC_site9888]”, the “gcPBM binding intensity (ln)” value is 8.87 ± 0.48.
Under “AAAAAAAAAAAATTATGTACATATTATATATAATGG [XGTACX_site2885]” stands 8.59 ± 0.42; under “TATGATAACCATAATTGTACAGAATGAAACGTAAAT [XGTACX_site1653]”, 8.96 ± 0.32; under “ACTTAAATAATACATACACACATGTACTTACAGAAA [CACACA_site8458]”, 8.98 ± 0.42.
Regarding “AGAAAAAAAAAAAAAAATAAAAAAATAAATAAATAA [GTGCAC_negctrl_site161]”, the “gcPBM binding intensity (ln)” value is 8.29 ± 0.59.
In the case of “AAAACGCAGTTTAATATACACACCAAAAAAAAAAAA [CACACA_site3036]”, the “gcPBM binding intensity (ln)” value came out at 8.84 ± 0.45.
As for “CACAAATATATACATACACACATATATACACATATA [CACACA_site8024]”, the “gcPBM binding intensity (ln)” value came to 9.37 ± 0.29.
As to “TTTGAGATGTGGTGTACACAAAATTAGGTACACATC [CACACA_site5773]”, the “gcPBM binding intensity (ln)” value was determined as 8.96 ± 0.42.
The value for “TGTTTTAAACTAATTTGTACATAGTTATTTATATTT [XGTACX_site7196]” was 8.69 ± 0.59.
The value for “ATTATATAAGTACACAAACAAGTATGAGATTCAAAA [GTGCAC_negctrl_site119]” was 8.88 ± 0.5; that for TATTAATTTCGGGAAGTGCATTATGTTTATAGAATA was 8.44 ± 0.37; that for “CCATATATTTGGTATAGTACTTTTTATTTTATTTCA [XGTACX_site8933]” was 8.77 ± 0.47.
Regarding “AATTGTTTTTTTTTCTTATTTTATGTTATACACACA [TGCATGCA_negctrl_site380]”, the “gcPBM binding intensity (ln)” value stood at 9.18 ± 0.41.
On to “AAAAAAAAAAAAAACACATGCAGAAGAAAAAAAATA [TGCATGCA_site545]”, for which the “gcPBM binding intensity (ln)” value worked out at 8.85 ± 0.51.
Under “ATATATTTTTCTTTACGTACGAAGCAAAATAACATT [XGTACX_site8145]” stands 8.57 ± 0.33; under “AAATGAACATATATGTGTACTTATATTTTTCTAAAT [XGTACX_site3388]”, 8.77 ± 0.37; under “AAAAAAAAAAAAAAAGTGCATATATAAATATTGTAT [GTGCAC_site9459]”, 8.62 ± 0.52.
Take “TCATTAAATGTTTAGGTGCATACTTTAATTTTTAAT [GTGCAC_site9906]”: the “gcPBM binding intensity (ln)” value turned out to be 8.52 ± 0.44.
With “TTTAAAAAATAATATTGTACTATTCTCCCAATTTCT [XGTACX_site7079]”, the “gcPBM binding intensity (ln)” value is 8.44 ± 0.57.
For the sequence “AAAAAATTTCAAATAACACACACTAATATAAATATG [CACACA_site6783]”, the “gcPBM binding intensity (ln)” value was 9.04 ± 0.34.
“TAACTTTGGAGGAGCTGTACGATTATTTTGATCCTT [XGTACX_site2514]”: the “gcPBM binding intensity (ln)” value was found to be 8.86 ± 0.39.
In the case of “ATATACTGTATGAAAGCACACATACTTATTACTAAC [CACACA_site9384]”, the “gcPBM binding intensity (ln)” value was determined as 8.97 ± 0.31.
The value for “ATGTGAAAATAAGACACACTCAAAAGGTTTATATTA [CACACA_site4595]” was 9.01 ± 0.45.
Take “TTTTTATATAATTTAACACACATTTCATATAAAAAA [CACACA_site3103]”: the “gcPBM binding intensity (ln)” value worked out at 8.29 ± 0.39.
Turning to “TGGGAAAAAATATATGCACACCCCCCAAAAAAAAAA [CACACA_site8696]”, the “gcPBM binding intensity (ln)” value was 10.48 ± 0.071.
Under “AATTCTTTATTATATGCACACGTACATATAATATAT [CACACA_site8621]” stands 9.07 ± 0.38.
Under “AAAAAATGTTATAAAAGTACATAATTTATCTACCAT [XGTACX_site3035]” stands 8.6 ± 0.42; under “ATAAATATAAAACACACACACATATTATATATATAT [CACACA_site3064]”, 9.72 ± 0.3.
Take “AAAAAAAAAAAAAAGTGTACCTTCAAAATAATATTG [XGTACX_site2844]”: the “gcPBM binding intensity (ln)” value is 8.43 ± 0.48.
Under CTATATATAACCCATGTGCACTTTTTATGTACAATA stands 8.99 ± 0.42.
“CCTTTTTCTACTTTCTCACACATATTAAGAATTATA [CACACA_site5621]”: the “gcPBM binding intensity (ln)” value was 8.65 ± 0.4.
The value for “TCTTTCCTTATTAAAACACACAAATACATTATTTAA [CACACA_site2147]” was 8.45 ± 0.43; that for “AAAAAATGAAAAAACTGTACGCAATTTTGTTTTTAT [XGTACX_site2299]” was 8.76 ± 0.39.
With “AAGTTTTTTTTTATCACACACAAAAAAAAAAATATA [CACACA_site1362]”, the “gcPBM binding intensity (ln)” value is 8.82 ± 0.52.
The value for “GGAGACTTTGTACAAACACACACATGAACACAATAT [CACACA_site8376]” was 9.58 ± 0.41; that for “TAATTTAAAAATGAACATATATATGTATGTAAATAT [TGCATGCA_negctrl_site135]” was 8.88 ± 0.33; that for “TCTTCACCACGTGGAAGTACATAAAAAGATACACAA [XGTACX_site4747]” was 8.89 ± 0.37.
Turning to “TTTTAATATATAGAGTAACAAATTTGTCTATTAATA [CACACA_negctrl_site1495]”, the “gcPBM binding intensity (ln)” value was 8.49 ± 0.47.
The value for “ATGTATATATTTATGTGTACTTAAATTTTTTTTTGT [XGTACX_site8179]” was 8.73 ± 0.4; that for “CATCTTAAATAAGAACGTACATTTTTTTTGATGAGA [XGTACX_site3462]” was 8.44 ± 0.33.
“AAGACAAAACAAAGAAGTACATATATATATATATAT [XGTACX_site4067]”: the “gcPBM binding intensity (ln)” value came out at 9.93 ± 0.11.
For the sequence “AATAATATTAACACACGTACAAAAGCAAACAACCAA [XGTACX_site7410]”, the “gcPBM binding intensity (ln)” value came out at 9.42 ± 0.35.
With “ATACATTCTAATACGTGTACATATATATATATATAT [XGTACX_site1881]”, the “gcPBM binding intensity (ln)” value stood at 9.39 ± 0.52.
In the case of “ATAAAACAAAAACACACACACATACACAAAAAAAAA [CACACA_site3848]”, the “gcPBM binding intensity (ln)” value is 10.1 ± 0.3.
